# The campaign covered roughly 280,000 compounds. About 100 (0.036%) were called active. Inconclusive means that the source gave no clear call. Such entries were picked first, then a sample of the others. Calls come from the whole dose curve; as a rule, active = well fitted inhibition curve with a large enough effect in the signal ratio, with a control signal flat (not every such curve was filed as active); inconclusive = small, poorly fitted or top-dose-only effect, or effect the other way, or a change in a side signal; inactive = no such curve, though single readings can be large or run the other way; the % refers to the signal ratio. Potencies of inconclusive entries are doubtful fits and often do not repeat. A note “side channel” means that the fit belongs to a control or component signal, not to the main read-out.
# Target: Muscleblind-like protein 1 (Homo sapiens) (UniProt Q9NR56)
# Sequence of UniProt Q9NR56 (Q9NR56 whole entry, looked up): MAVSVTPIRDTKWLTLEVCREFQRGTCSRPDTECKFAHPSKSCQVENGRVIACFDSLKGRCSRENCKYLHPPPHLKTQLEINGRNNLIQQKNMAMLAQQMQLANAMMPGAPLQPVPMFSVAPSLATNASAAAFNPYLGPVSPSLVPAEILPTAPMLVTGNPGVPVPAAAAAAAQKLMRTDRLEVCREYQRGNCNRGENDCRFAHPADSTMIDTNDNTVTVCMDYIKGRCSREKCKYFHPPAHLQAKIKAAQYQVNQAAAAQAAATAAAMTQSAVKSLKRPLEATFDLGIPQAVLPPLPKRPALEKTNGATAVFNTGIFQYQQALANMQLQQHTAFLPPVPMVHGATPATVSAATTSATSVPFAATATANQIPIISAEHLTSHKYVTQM
# Assay: qHTS Assay for Inhibitors of MBNL1-poly(CUG) RNA binding
# Conditions: TR-FRET MBNL1-His/biotin-(CUG)12 binding, 665/545 ratio; activity change, negative = inhibition: at 57.5 µM (top of the series)
# Outline: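 Compound titration spanned 92 nM–58 uM against the MBNL1-His/biotin-(CUG)12 complex. After 60 min at room temperature with 5 nM streptavidin-XL665 and 0.055 ng/ul terbium anti-His, ratiometric 665/545 nm emission (Ex 340 nm) normalized to controls.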
# % is set by controls: 0 for no effect and ±100 for the full control effect; potency is the fitted concentration of half-maximal effect; tags give direction and shape of the fitted curve or compound fluorescence and quenching.
Compound,"activity change, negative = inhibition",Potency
CC1CCN(C(=O)C(=O)c2cn(CC(=O)N3CCCC3)c3ccccc23)CC1,inactive: -7.34%,–
Cc1cc(C)nc(NCCO)n1,–,"inconclusive: 6.31 µM [inhibitor, single point]"
Cc1csc2cc(-c3cccc([N+](=O)[O-])c3)c(-c3cccc([N+](=O)[O-])c3)c[n+]12,–,"inconclusive: 12.6 µM [quencher, side channel, partial curve, poor fit]"
Cc1cccc(NC(=O)/C(C#N)=C\c2cc(C)n(-c3ccc(C(=O)O)cc3)c2C)c1,–,"inconclusive: 15.8 µM [quencher, side channel, partial curve]"
O=C1CCCC(O)=C1N=Nc1ccc(Cl)c(Cl)c1,–,"inconclusive: 3.55 µM [quencher, side channel, full curve]"
CN(c1nnc(N)s1)C1CCCCC1,–,"inconclusive: 79.4 µM [inhibitor, single point]"
COc1cc(/C=C2\SC(=S)N(NS(=O)(=O)c3ccccc3)C2=O)ccc1O,–,"inconclusive: 20 µM [quencher, side channel, single point]"
Cc1nn(C)cc1CN(C)C(=O)c1cc2nc(-c3ccco3)cc(C(F)(F)F)n2n1,–,"inconclusive: 20 µM [quencher, partial curve]"
CC(=O)c1n[nH]nc1Nc1nc(C)cc(C)n1,–,"inconclusive: 3.16 µM [fluorescent, side channel, partial curve]"
CN(C(=O)CN1CCN(c2ccc([N+](=O)[O-])cn2)CC1)c1ccccc1,–,"inconclusive: 15.8 µM [quencher, side channel, partial curve]"
COc1cc(C(=O)OC2CCOC2=O)c([N+](=O)[O-])cc1OC (stereo not given),–,"inconclusive: 28.2 µM [quencher, side channel, partial curve]"
COc1cccc(C(=O)Nc2ccc(NC(=O)C3CCCCC3)nc2)c1,inactive: -5.18%,–
COc1ccc(C(=O)NC2CC(C)(C)Cc3c2cnn3-c2ccccc2)cc1OC (stereo not given),inactive: -1.31%,–
Cc1cc(/C=C(/C#N)c2nc3ccccc3[nH]2)c(C)n1-c1ccccc1C(=O)O,–,"inconclusive: 15.8 µM [quencher, side channel, partial curve]"
CC1=CC(=C(C#N)C#N)c2ccccc2N1C,–,"inconclusive: 11.2 µM [quencher, side channel, partial curve]"
C=CCOC(=O)/C(=C\C=C\c1ccccc1)NC(=O)c1ccccc1,–,"inconclusive: 2.51 µM [quencher, side channel, partial curve, poor fit]"
COc1ccc(N/N=C(\C#N)C(=N)N2CCOCC2)cc1,–,"inconclusive: 28.2 µM [quencher, side channel, single point]"
O=C(NNC1=C(C(=O)C(F)(F)F)CCC1)c1ccc(Br)cc1,inactive: -0.131%,–
Cc1ccc(C2=NS(=O)(=O)N(C)C(C(=O)NC3CCCC3)=C2)cc1,–,"inconclusive: 31.6 µM [quencher, side channel, single point]"
CCCN1/C(=C2/SC(=S)N(CC)C2=O)C=Cc2ccccc21,–,"inconclusive: 2 µM [quencher, side channel, partial curve, poor fit]"

Compound,"activity change, negative = inhibition",Potency
COc1ccc(S(=O)(=O)N2CCN(C(=S)Nc3ccc(S(N)(=O)=O)cc3)CC2)cc1,inactive: -3.94%,–
Cc1cc(C)nc(/N=C(\N)Nc2ccc(F)c([N+](=O)[O-])c2)n1,–,"inconclusive: 20 µM [quencher, side channel, partial curve]"
CCN1C(=O)c2cccc3c(S(=O)(=O)NC(Cc4ccccc4)C(=O)O)ccc1c23 (stereo not given),–,"inconclusive: 25.1 µM [quencher, side channel, partial curve]"
COc1ccc([N+](=O)[O-])cc1NC(=O)C(C)c1ccccc1 (stereo not given),–,"inconclusive: 31.6 µM [quencher, side channel, single point]"
N/C(=N\N=C\c1ccc(O)cc1)c1nonc1N,–,"inconclusive: 22.4 µM [quencher, partial curve]"
O=C(C1CCCN(Cc2ccc([N+](=O)[O-])cc2)C1)N1CCCCC1 (stereo not given),–,"inconclusive: 15.8 µM [quencher, side channel, partial curve]"
O=C1c2cccnc2C(=O)N1Cc1ccc(F)cc1,–,"inconclusive: 12.6 µM [quencher, side channel, partial curve]"
O=C1C2CC=CCC2C(=O)N1c1ccc(NCCc2ccc(O)cc2)c([N+](=O)[O-])c1 (stereo not given),–,"inconclusive: 14.1 µM [quencher, side channel, partial curve]"
Cc1ccc2c(CN3CCCc4ccccc43)cc(=O)oc2c1C,–,"inconclusive: 25.1 µM [quencher, side channel, partial curve]"
CN(C)C=Nc1ncc2c([nH]c3ccccc32)c1C#N,–,"inconclusive: 44.7 µM [quencher, side channel, partial curve, poor fit]"
C=CCOc1c(CNc2cccc(C(=O)O)c2)cccc1OC,inactive: 2.28%,–
CCC(CC)=N/N=C/c1c(O)n(CC)c2cc(C3=NNC(=O)CC3)ccc12,–,"inconclusive: 39.8 µM [inhibitor, single point]"
O=C1C(Nc2ccccc2)=C(NS(=O)(=O)c2ccccc2)C(=O)c2ccccc21,–,"inconclusive: 2.24 µM [quencher, side channel, partial curve]"
O=C(Cn1cnc2ccccc21)N/N=C/c1ccc([N+](=O)[O-])cc1,–,"inconclusive: 3.16 µM [quencher, side channel, partial curve, poor fit]"
N#CCC(N)=C(C#N)C#N,–,"inconclusive: 14.1 µM [fluorescent, side channel, partial curve]"
Oc1c(Cl)cc(Cl)cc1/C=C/c1ccc2cccc(O)c2n1,inactive: 4.11%,–
CC/C(=N\Nc1ccccc1[N+](=O)[O-])c1ccc(O)cc1,–,"inconclusive: 28.2 µM [quencher, side channel, partial curve]"
CCC(=O)N1CCN(c2cc(C)ccc2C)CC1,–,"inconclusive: 3.16 µM [quencher, side channel, partial curve]"
COc1ccc(C(C(=O)NCc2ccc(F)cc2)N(Cc2cccnc2)C(=O)c2snc(C(N)=O)c2N)cc1 (stereo not given),–,"inconclusive: 15.8 µM [quencher, side channel, partial curve]"
CCOc1ccc(/C=N/NC(=O)c2ccoc2C)cc1OC,–,"inconclusive: 25.1 µM [quencher, side channel, partial curve]"

Compound,"activity change, negative = inhibition",Potency
CC1(C)CC(=NOC(=O)c2ccccc2)CC(C)(C)N1,–,"inconclusive: 8.91 µM [quencher, side channel, partial curve]"
CCOC(=O)c1cccc(NC(=O)CCS(=O)(=O)c2cccc3nsnc23)c1,–,"inconclusive: 8.91 µM [quencher, side channel, partial curve]"
CCCCc1nnc(NC(=O)CSc2nc(O)c(-c3ccccc3)c(=O)[nH]2)s1,–,"inconclusive: 0.794 µM [quencher, side channel, full curve]"
CCCCCn1c(CNC(=O)CCC)nc2ccccc21,–,"inconclusive: 0.708 µM [quencher, side channel, single point]"
Cn1ncc([N+](=O)[O-])c1C(=O)Nc1cccc2ccccc12,–,"inconclusive: 14.1 µM [quencher, side channel, partial curve]"
COc1ccc(Oc2cn[nH]c2-c2ccc(O)cc2O)cc1,inactive: 6.96%,–
Cc1ccc(NS(=O)(=O)c2ccc(C)c(NC(=O)COc3ccccc3)c2)c(C)c1,–,"inconclusive: 0.631 µM [quencher, side channel, full curve, poor fit]"
COc1ccc(S(=O)(=O)/N=C2/NC(=O)/C(=C\c3cc(OC)c(OC)cc3[N+](=O)[O-])S2)cc1,inactive: 15.6%,–
Cc1cc(C)n(C(=O)c2ccc(NC(=O)C3COc4ccccc4O3)cc2)n1 (stereo not given),inactive: 9.71%,–
CC(C)NC(=O)NC(=O)COC(=O)/C=C/c1ccccc1[N+](=O)[O-],–,"inconclusive: 22.4 µM [quencher, single point]"
Cc1ccc(-c2cc(C(=O)N/N=C/C=C/c3ccccc3)n[nH]2)s1,inactive: -3.1%,–
O=C(N/N=C/C(Cl)=C/c1ccccc1)c1ccccn1,–,"inconclusive: 17.8 µM [quencher, side channel, partial curve]"
CC(C)CN1CCC(C(=O)NCC2CCCO2)CC1 (stereo not given),–,"inconclusive: 39.8 µM [inhibitor, single point]"
COc1cc2c(c(OC)c1OC)-c1ccc(NC(=O)c3ccccc3)c(=O)cc1[C@@H](NC(C)=O)CC2,–,"inconclusive: 8.91 µM [quencher, side channel, partial curve]"
Cn1c(=O)c(C#N)c(-c2ccccc2)n2cnnc12,–,"inconclusive: 25.1 µM [quencher, side channel, partial curve]"
Cn1c(/C(C#N)=C/Nc2ccccn2)nc2ccccc21,–,"inconclusive: 11.2 µM [quencher, partial curve]"
CCOC(=O)c1sc(-c2ccc(C)cc2)c(C#N)c1C,inactive: -13.3%,–
CCOc1ccc(C(C)=O)cc1COc1cccnc1[N+](=O)[O-],–,"inconclusive: 28.2 µM [quencher, side channel, single point]"
COc1cc(/C=C/C(=O)Nc2ccc(C)cc2)cc(OC)c1OC,inactive: 17.5%,–
Cc1ccc2c(c1)N(CCC(=O)NCc1ccccn1)C(=O)CO2,–,"inconclusive: 44.7 µM [quencher, side channel, partial curve, poor fit]"

# Source: PubChem BioAssay AID2675 (National Center for Advancing Translational Sciences (NCATS), 2010)
